Experimental findings from the RNAGym collection of RNA variant scans (doi:10.7554/elife.90254) are described below.

To fix the notation:
B1: OR4K15 (parent)
chain: GUUAACGGUCAUAGGCCAUGGAAACUAGGAGCACCAUUUCGCUGCCAGUGAAGAAAUGAACAAAGAAAAUCUGGGCCAGGCAGGCAUCAAAAGAAAUAGUCUUGCGCUCAACCAGAAAGUCUGUAAUCAUUUUAAGGGUA

Read counts are not given, so values of variants with three or more changes are uncertain.

In this series the parent is B1. In words: self-cleavage, relative activity (ratio to wild type); higher = more cleavage; in vitro, sequencing; the parent is a self-cleaving ribozyme.
As to U9C U49C U100A U122C, the self-cleavage was 0.53. As for C10U A23G U70C U108A, the self-cleavage was determined as 0.06.

Turning to U9C A24G A33G C77A, the self-cleavage was determined as 0.54. In the case of U9C A66U A111G, the self-cleavage came to 0.06. The value for C10U A52G A90G was 0.19; that for U9C U39C A54G A59G U87C A129U was 0.8. The value for A11C A90G U103A was 0.1. As for A11C U70C A89G G93A, the figure is 0.26; as for U9C A62C A63G A64G U72C, 0.42. As to U9C G20A U70A, the self-cleavage came to 1.82.

With U9C A111G A140G, the self-cleavage worked out at 0.03. Regarding U9C G53C U127C, the self-cleavage was determined as 0.82.

Consider U9C A59G U72C, for which the self-cleavage worked out at 0.26. For U9C A64G A92G U97C, the self-cleavage was found to be 1.43. As for A11G A18G G74C A135G, the figure is 0.44. As for A11G A23U A27G A67G A95G, the figure is 0.91; as for U9C U97C A126G, 0.88; as for A11G A22G G41U A63G U87C, 0.82. As for A11G A33U A56G A96U A135G, the figure is 1.54; as for U9C A22G C128U, 1.09. On to U9C A91U A129G, for which the self-cleavage is 1.6. As for U9C C101U U132C, the figure is 0.46. Take U9G C16G A86G U97A A114G U132C: the self-cleavage is 0.51. As for U9C U38A U87C U108C C113U, the figure is 0.02. As for U9C U49A A94G, the figure is 1.48; as for U9C A68G A98G U130C, 0.34. As for A11G A27U G31A A92G, the figure is 1.16; as for U9C A129G A135G, 0.86; as for A11C A52G U100C A125G, 2.14. U9C G84A U127C U130C: the self-cleavage is 1.98. As to U9C A69G U103C, the self-cleavage was found to be 1.2. For the variant U9C A22G U70C U124C U132C, the self-cleavage was determined as 0.25. The value for U9C C16U A129G was 1.36.

Take U9C U43A U87C A118G: the self-cleavage amounted to 1.9.

As for A11G A27G A117G, the self-cleavage is 0.

On to U9C A52G A91G A126G, for which the self-cleavage is 0.92. Turning to U9C U39C A55G, the self-cleavage came to 1.53. The value for U9C A78G C81G A90G was 0.17. As to C10A A51G C85U, the self-cleavage was 0.94. The value for U9C A36G A55G was 1.17. The value for U9C A22G A36U A86U was 1.35; that for U9C C77A A92G was 0.83. The value for U9C A67C U132C was 2.79. On to A11G A24G U87A, for which the self-cleavage amounted to 1.15.

Regarding U9C U108C A134G A135G, the self-cleavage was 0.01. For the variant U9C C45G A63U A78G, the self-cleavage came to 0.32. Consider U9C A22G U102C, for which the self-cleavage was 0.71.

With U9C A24C A78G U97G A111G, the self-cleavage turned out to be 0.07. The value for A11G A24C A52G was 1.36; that for U9C A23U U87C U108C was 0.02; that for U9C A63G A69G was 0. As for A11C U57G A60G U100A, the figure is 0.34; as for A11G A24G A55G A64U A110U, 2.26. For the variant U9C U38C U127C, the self-cleavage was determined as 1.06. The value for C10A A18G G83A U100C U130C U139C was 1.07; that for A11G A22G U43A U122C was 1.06; that for A11G A22U A111G U127C was 0.04. Turning to U9C U19C A23C A69G U103C U132C, the self-cleavage was 0.63. As for U9C A22G A98U, the figure is 1.95.

For U9C A98G A118G, the self-cleavage was 0.53. U9G A22G U57C A78G A89U A95G: the self-cleavage was found to be 0.35. As for U9C G29U A59G C109U, the figure is 0.43; as for U9C A22G A51G, 1.24; as for U9C A55G A62G U72C, 0.5. As to A11C A18G A69G, the self-cleavage came out at 1.45.

As for A11C A59G U70A A118G, the self-cleavage is 0.4.

Take U9C A96G A118G: the self-cleavage was 1.88.

For the variant A11G A18G A66U U124A U132A, the self-cleavage was found to be 0.26. As for C10A A13G A24C U72C A126G, the figure is 0.17. Take U9G A63G A66G A98U A114G: the self-cleavage came out at 1.14. Turning to A11C A56G A118G, the self-cleavage was found to be 1.39. For the variant C10U U43A G84A, the self-cleavage was found to be 0.88. Consider U9C A33G U72C A110G A116G, for which the self-cleavage came to 0.06. The value for U9C A11U C101U was 0.36. The value for U9C A82U A129G was 0.22. As to U9C A56G A140G, the self-cleavage was 1.06.

Take U9C A92G A118G: the self-cleavage worked out at 0.44.

In the case of A11C A22U A30G A47U, the self-cleavage came to 0.62.

Consider U9C A33U G106A, for which the self-cleavage amounted to 0.01. Regarding A11G A24G U87A U108C A135G, the self-cleavage turned out to be 0.01. The value for C10U U87A A129G was 0.27. Take U9C U43A A64G G104A: the self-cleavage came out at 0.1. As for U9C A22G C81U, the figure is 0.53.

On to A11C A18U U72A U100C, for which the self-cleavage came to 0.22. As to U9C A56G A90G, the self-cleavage was determined as 1.1. As for U9C U38C A47G, the figure is 1.76; as for U9C U100C U124C, 1.75. The value for U9C G80U U127A U130C was 0.16.

In the case of U9C A11U A135G, the self-cleavage was found to be 1.29. In the case of A11G A24G A33G A55G A60U A63G A96G U132C, the self-cleavage worked out at 0.7. With U9C A64G A82G A92G A111G, the self-cleavage came out at 0.05.

Consider U9C A91G U103C, for which the self-cleavage was determined as 0.28. As for U9C A118G G136A U139C, the figure is 1.67; as for U9C U49A G83A, 1.09.

With U9C U39C U97A U133C, the self-cleavage was determined as 2.2. In the case of U9C A59C A140G, the self-cleavage was 1.64.

As to C10A A18U A22G U37C A64G C81G, the self-cleavage stood at 0.12. The value for A11C U38C A59G A67U was 1.51. With U9C A36U U70C, the self-cleavage is 0.19.

Consider U9C A33G A36G U38C, for which the self-cleavage worked out at 1.62.

For the variant U9C A27G A51G A68G G83U A95G U132C, the self-cleavage was 0.37.

For the variant U9C U38C A82G U127C U130A, the self-cleavage came to 0.52. As for U9C U49C A54U A86U A135G U139C, the figure is 1.72.

As for U9C A11U U26G U37C A96G C101U, the self-cleavage is 0.44.

With C10U A13U A64G A91G, the self-cleavage is 0.66. The value for U9C A60G A116G G138A was 1.01.

U9C A23G A33G A63G U124G: the self-cleavage amounted to 0.21. As to A11G A23G A59G U70C, the self-cleavage is 0.89. Take U9C A82G C107U U120C: the self-cleavage was 0.01. As for U9C A66G A95G, the self-cleavage was determined as 2.2.

In the case of U9C U39C U87C A118G, the self-cleavage came out at 0.96.

In the case of U9C A52U A54C, the self-cleavage came to 0.94. The value for U9C U12A A64G A78G A91G was 0.21; that for U9C G21A A52U was 1.91; that for U9C A30G A82G U97C U120C A135G was 0.19.

U9C A24G U57C A78C A118G: the self-cleavage is 0.09.

In the case of U9C A33U A60G A63G U72C A117G U120A, the self-cleavage is 0.21. The value for U9C U87C A116G was 0.55; that for A11G A18G A51G U132C A135G was 0.51; that for U9C A90G U97C was 1.23. U9C U38A A56G: the self-cleavage stood at 1.61. The value for U9C A68G A78G A94G A118G was 0.11; that for U9C A91G A96G A134G was 1.81. The value for U9C A59G U130C was 1.18.

Consider U9C U12C U43A A68G U87C A117G, for which the self-cleavage was found to be 1.58. The value for A11G A18U U100A U103C was 0.1; that for U9C U19A A110G U120C was 0.1. Take A11G A33G A94G: the self-cleavage worked out at 0.75. On to U9C U26A U131C, for which the self-cleavage was 0.32.

As for U9C C17A A82G, the self-cleavage turned out to be 0.28. The value for U9C A91G A126G was 0.86; that for U9C U49C U70C was 1.68; that for U9C A18U A23G A126G was 0.61. The value for U9C A11U A36C was 1.1; that for U9C A18U A68U was 1.31; that for U9C U26C G74A was 0.38. With A11G A24G A60G A90G C128G, the self-cleavage amounted to 0.24. As for U9C A47U C88G A140G, the self-cleavage stood at 1.11.

As for U9C A116G A126G, the self-cleavage was determined as 1.08. For A11C U100A U131C U132C, the self-cleavage was 0.66.

Turning to U9G U19A A67G A69U, the self-cleavage is 1.23. As for U9C G14A A52G A110G A117G, the figure is 0.08; as for C10A U37C U139C, 0.8. The value for U9G A23G U108C A129G was 0.01; that for U9C C113U U130C was 0.

As for U9C U38C A64G, the self-cleavage came to 1.04. The value for U9C A11G U72C was 0.34; that for A11G A24G A78U G106C was 0.03. The value for U9C A11U U38G A140G was 1.1; that for U9C U12C A89G U100C was 0.92.

Regarding A11G A23G A52G, the self-cleavage is 0.96. As for U9C U19C A30G A54G U57G A126G, the figure is 0.68. The value for U9C A55G A68G A89G was 1.06; that for U9C U39C A82U A116G was 0.09; that for U9C A23G C112G A117G was 0.02.

In the case of U9C C40U U43C A56G A64G U103A, the self-cleavage is 0.65. As for U9C U100A U108C, the figure is 0.02; as for U9C A59G A68C, 1.59. The value for U9C U39A A86U U108C U130C U131C was 0.01; that for U9C A36G A78G A89C was 0.57. Consider A11G A22G A118G, for which the self-cleavage was 1.06.

With U9C U49C U72C A94G, the self-cleavage turned out to be 0.34. Regarding U9G U57C C105U A117G, the self-cleavage came to 0.03. In the case of U9C U39A A62G A68G, the self-cleavage turned out to be 1.42. As for U9C A54G U97C, the figure is 1.33; as for U9C A98U A114G, 1.77. In the case of C10U C42U A67G, the self-cleavage was 0.76.
